Results reported in publication PMC4336329 (PLoS ONE, 2015).
Among all 310,000 compounds or so, about 14,000 (4.5%) showed an effect of 50% or more. Effects have a minus sign here. This is one part of the list.

Target: human ether-à-go-go-related gene (hERG) potassium channel (human, UniProt Q12809)
Assay: primary screen, population patch clamp on CHO cells stably expressing hERG
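Note: peak tail current of the secondary pulse compared with the same well before compound.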

Sequence of human ether-à-go-go-related gene (hERG) potassium channel (Q12809 whole entry, looked up): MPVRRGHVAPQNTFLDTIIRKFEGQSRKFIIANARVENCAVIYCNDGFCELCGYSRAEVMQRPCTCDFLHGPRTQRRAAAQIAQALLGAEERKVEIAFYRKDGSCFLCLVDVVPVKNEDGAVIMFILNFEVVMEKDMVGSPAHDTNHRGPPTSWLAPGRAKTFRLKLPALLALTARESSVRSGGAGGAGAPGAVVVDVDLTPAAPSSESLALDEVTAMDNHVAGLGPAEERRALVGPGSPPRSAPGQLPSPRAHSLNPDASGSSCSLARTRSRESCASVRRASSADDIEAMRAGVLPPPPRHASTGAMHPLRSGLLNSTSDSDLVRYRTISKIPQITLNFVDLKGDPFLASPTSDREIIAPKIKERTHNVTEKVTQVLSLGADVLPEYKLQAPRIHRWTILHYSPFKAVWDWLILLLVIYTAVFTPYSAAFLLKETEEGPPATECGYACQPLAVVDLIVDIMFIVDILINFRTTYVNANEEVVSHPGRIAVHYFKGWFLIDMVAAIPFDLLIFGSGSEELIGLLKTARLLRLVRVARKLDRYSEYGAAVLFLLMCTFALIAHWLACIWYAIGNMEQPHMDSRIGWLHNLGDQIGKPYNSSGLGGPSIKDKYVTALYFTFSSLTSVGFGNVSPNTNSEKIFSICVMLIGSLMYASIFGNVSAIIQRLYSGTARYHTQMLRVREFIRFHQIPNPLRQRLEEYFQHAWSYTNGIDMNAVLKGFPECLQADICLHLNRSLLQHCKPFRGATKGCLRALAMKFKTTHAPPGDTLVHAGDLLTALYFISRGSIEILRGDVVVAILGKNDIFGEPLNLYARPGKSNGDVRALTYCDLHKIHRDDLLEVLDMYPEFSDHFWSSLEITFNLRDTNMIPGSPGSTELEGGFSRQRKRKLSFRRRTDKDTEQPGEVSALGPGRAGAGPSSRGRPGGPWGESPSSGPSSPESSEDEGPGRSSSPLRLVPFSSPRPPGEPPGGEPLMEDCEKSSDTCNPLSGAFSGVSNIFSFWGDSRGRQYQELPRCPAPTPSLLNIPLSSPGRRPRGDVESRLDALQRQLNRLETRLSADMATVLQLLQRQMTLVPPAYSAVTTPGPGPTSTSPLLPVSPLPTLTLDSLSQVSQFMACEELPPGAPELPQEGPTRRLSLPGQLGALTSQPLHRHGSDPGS

Row | SMILES | hERG current change (%, negative = inhibition) at 10uM [%]
1 | COc1ccc(/C=N/n2c(-c3n[nH]c4c3CCC4)n[nH]c2=S)cc1OC | 14
2 | O=C(NCCCn1ccnc1)c1ccc(Cl)cc1[N+](=O)[O-] | -25.4
3 | CC(=O)N/N=C(\C)CC(=O)Nc1cccc(C(F)(F)F)c1 | 4.47
4 | COc1ccc(-c2cc(C3CCN(c4cc(Cl)nc(N)n4)CC3)[nH]n2)cc1 | -22.5
5 | Cc1cc(C(=O)COC(=O)CC2Sc3ccccc3NC2=O)c(C)n1-c1ccc2c(c1)OCO2 (stereo not shown) | -4.58
6 | CC(=O)Oc1ccc(NC(=O)Cc2ccccc2)c(C(=O)O)c1 | 9.3
7 | Cc1cccc(NC(=O)C2CCN(C(=O)c3ccccc3C)CC2)n1 | -17.6
8 | CC1CCCC(NC(=O)CSc2nccn2C)C1C.Cl (stereo not shown) | 0.951
9 | O=C(Nc1nc(-c2cccc3ccccc23)cs1)c1cnccn1 | 11.6
10 | COc1ccc(C(=O)NC(CO)c2nnc(SCc3ccc(Cl)c(Cl)c3)n2C)cc1 (stereo not shown) | -18.1
11 | CCc1ccc(N2CC(C(=O)OC)CC2=O)cc1 (stereo not shown) | -0.179
12 | Cc1ccc(NC(=O)C2CC(=O)N(c3ccc4c(c3)OCCO4)C2)cc1S(=O)(=O)N1CCCCCC1 (stereo not shown) | 0.997
13 | Oc1[nH]c2ccc(Br)cc2c1N=NC(=S)NCC1CCCO1 (stereo not shown) | -7.35
14 | Cc1nn(C(C)(C)C)c(OC(=O)c2ccco2)c1Sc1ccccc1 | -0.866
15 | CC1=CCC2C(=O)N(Cc3ccccc3)C(=O)C2C1 (stereo not shown) | -1.1
16 | CN1C(=O)/C(=C/c2ccc(OCc3ccc(F)cc3)cc2)N(C)C1=S | 10.8
17 | COc1cccc(/C=N/Nc2nc3ccccc3n3cnnc23)c1 | 4.59
18 | O=[N+]([O-])c1ccc(N=NNc2ccccc2)cc1 | 13.8
19 | COc1ccc(CN2CCN(Cc3ccccc3F)CC2)cc1OC.O=C(O)C(=O)O | -22.6
20 | CC1(C)Cc2c(c(-c3ccco3)[nH]c(=O)c2C#N)CO1 | 11.5
21 | Cc1csc(C)[n+]1CC(=O)c1ccccc1.[Br-] | 19.7
22 | Cc1cc(-c2ccccc2)nc2cc(C(N)=O)nn12 | 9.45
23 | O=C(CNC(=O)c1ccccc1Cl)OC1CCOC1=O (stereo not shown) | 13.5
24 | O=C(CSc1cn(CCNC(=O)c2ccc3ccccc3c2)c2ccccc12)NCc1ccco1 | 1.26
25 | O=c1cc2c(nn1Cc1ccc(F)cc1)-c1ccccc1CC2 | -61.3
